# In the supplement of paper PMC4604168 (melanoma cell lines):
# Some of the results follow. Single values are uncertain, as repeats are few or missing.
# System: A2058
# Assay: cell count relative to DMSO control; melanoma cells; higher = more viable cells
# Settings: library dose: standard library concentration; 72 h
# 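Also: cells treated in 1,536-well plates, then fixed and DAPI-stained, with nuclei counted from automated high-throughput microscope images.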
row,Compound,cell count [%]
1,"Clc1ccc(Nc2nnc(Cc3ccncc3)c3ccccc23)cc1 [vatalanib] + C=CCn1c(=O)c2cnc(Nc3ccc(N4CCN(C)CC4)cc3)nc2n1-c1cccc(C(C)(C)O)n1 [MK1775] (first compound 10 µM, partner dose 0.1 µM)",82.9
2,"OCc1c[nH]c2ccccc12 [Indole-3-carbinol] + OCCn1cc(-c2cnc3nnn(Cc4ccc5ncccc5c4)c3n2)cn1 [PF04217903] (first compound 4 µM, partner dose 5 µM)",135
3,"COCC[n+]1c2c(n(Cc3cnccn3)c1C)C(=O)c1ccccc1C2=O + Cn1nnc2c(C(N)=O)ncn2c1=O [temozolomide] (first compound 0.002 µM, partner dose 10 µM)",17.2
4,"OCc1c[nH]c2ccccc12 [Indole-3-carbinol] + O=C(O)c1ccc(-c2c[nH]c3ncc(-c4ccccc4)cc23)cc1C1CCCC1 [GSK650394] (first compound 4 µM, partner dose 0.8 µM)",79.2
5,"COCC[n+]1c2c(n(Cc3cnccn3)c1C)C(=O)c1ccccc1C2=O + O=C(Nc1cccc(Cl)c1)Nc1ncc(CCNc2ncnc3ccsc23)s1 [SNS314] (first compound 0.002 µM, partner dose 0.004 µM)",19.3
6,"C#Cc1cccc(Nc2ncnc3cc(OCCOC)c(OCCOC)cc23)c1 [erlotinib] + Nc1cccc2c1CN(C1CCC(=O)NC1=O)C2=O [lenalidomide] (first compound 4 µM, partner dose 5 µM)",78.1
7,"O=C(CCCCCCC(=O)Nc1ccccc1)NO [vorinostat] + OCCn1cc(-c2cnc3nnn(Cc4ccc5ncccc5c4)c3n2)cn1 [PF04217903] (first compound 0.4 µM, partner dose 5 µM)",82.9
8,"Nc1cccc2c1CN(C1CCC(=O)NC1=O)C2=O (stereo not drawn) [lenalidomide] + OCCn1cc(-c2cnc3nnn(Cc4ccc5ncccc5c4)c3n2)cn1 [PF04217903] (first compound 5 µM, partner dose 5 µM)",117
9,"C#Cc1cccc(Nc2ncnc3cc(OCCOC)c(OCCOC)cc23)c1 [erlotinib] + C=CCn1c(=O)c2cnc(Nc3ccc(N4CCN(C)CC4)cc3)nc2n1-c1cccc(C(C)(C)O)n1 [MK1775] (first compound 4 µM, partner dose 0.1 µM)",79.8
10,"COCC[n+]1c2c(n(Cc3cnccn3)c1C)C(=O)c1ccccc1C2=O + O=C(O)c1ccc(-c2c[nH]c3ncc(-c4ccccc4)cc23)cc1C1CCCC1 [GSK650394] (first compound 0.002 µM, partner dose 0.8 µM)",25.2
11,"OCc1c[nH]c2ccccc12 [Indole-3-carbinol] + NC(=O)Nc1cc(-c2cccc(F)c2)sc1C(=O)N[C@H]1CCCNC1 [AZD7762] (first compound 4 µM, partner dose 0.1 µM)",95.2
12,"Clc1ccc(Nc2nnc(Cc3ccncc3)c3ccccc23)cc1 [vatalanib] + Cn1nnc2c(C(N)=O)ncn2c1=O [temozolomide] (first compound 10 µM, partner dose 10 µM)",48.8
13,"Nc1cccc2c1CN(C1CCC(=O)NC1=O)C2=O (stereo not drawn) [lenalidomide] + C[C@]1(c2nc3c(C(N)=O)cccc3[nH]2)CCCN1 [Veliparib] (first compound 5 µM, partner dose 7 µM)",97.8
